Hit rate of the full screen: of about 45,000 compounds, about 65 (0.1%) were called active. The call rests on the fitted dose curve; in most records, active means well fitted activation curve with a large enough effect; inconclusive means small, poorly fitted or top-dose-only effect; inactive means no such curve, though single readings can be large or run the other way. Some of the results follow.
The molecules below were run against Galactocerebrosidase (Homo sapiens) (UniProt P54803) (assay: A Novel Cell-Based Assay to Identify Small Molecules for B -Galactocerebrosidase). Settings: 145M-Twi-hGALC-G270D cells (Twitcher mouse brain line with human GALC G270D), HMU-beta-Gal fluorescence, 48 h; series mostly up to 57.5 µM; activation: at the top concentration.
Method in brief: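 Fluorescence readout: HMU-β-gal cleavage by mutant GALC (0.1 mM final, citrate/phosphate pH 5.2 with 1 mg/mL taurocholate), stopped with carbonate/bicarbonate plus Triton X-100. Cells: murine Twitcher 145M-Twi expressing human G270D GALC; qHTS for activators.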
Further: 0% is about no effect; nearly all actives have a fitted effect of over 65% in size.

UniProt P54803, sequence (P54803 whole entry, looked up): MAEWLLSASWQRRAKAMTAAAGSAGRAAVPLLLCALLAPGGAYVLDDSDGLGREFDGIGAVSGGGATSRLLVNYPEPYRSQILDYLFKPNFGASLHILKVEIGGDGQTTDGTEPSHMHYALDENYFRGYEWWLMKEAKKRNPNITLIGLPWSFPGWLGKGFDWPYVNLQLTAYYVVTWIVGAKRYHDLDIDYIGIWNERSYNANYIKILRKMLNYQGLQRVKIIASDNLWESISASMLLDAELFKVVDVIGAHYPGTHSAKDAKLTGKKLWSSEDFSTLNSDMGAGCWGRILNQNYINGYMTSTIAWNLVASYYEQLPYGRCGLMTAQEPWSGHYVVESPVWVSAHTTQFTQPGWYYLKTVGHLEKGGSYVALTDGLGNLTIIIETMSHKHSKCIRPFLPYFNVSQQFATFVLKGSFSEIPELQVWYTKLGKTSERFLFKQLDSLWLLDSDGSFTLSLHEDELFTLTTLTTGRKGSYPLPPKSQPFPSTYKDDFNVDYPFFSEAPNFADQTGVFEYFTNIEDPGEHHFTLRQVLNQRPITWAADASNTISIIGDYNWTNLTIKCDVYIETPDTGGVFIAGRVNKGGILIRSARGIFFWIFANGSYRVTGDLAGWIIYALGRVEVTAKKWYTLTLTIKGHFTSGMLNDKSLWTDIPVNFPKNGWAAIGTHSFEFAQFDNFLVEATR

activation, inactive:
COc1ccccc1-c1cc(C(F)(F)F)nc(S(=O)(=O)CCCC(=O)Nc2cc(Br)ccc2O)n1 -0.353%, O=C(NCCc1ccccc1)C(=O)NCC(c1cccnc1)N1CCN(c2ccc(F)cc2)CC1 (stereo unspecified) -16.2%, CCC(=O)N1CCc2cc(CNC(=O)Nc3ccc(OC)cc3OC)ccc21 -3.08%, O=C(CSc1nccn1Cc1ccccc1)NC1CCCC1 -14.8%, CCCCC(=O)O[C@]1(C(=O)CO)CC[C@H]2[C@@H]3CCC4=CC(=O)CC[C@]4(C)[C@H]3[C@@H](O)C[C@@]21C -12.3%, COc1ccc(NC(=O)C2CCN(S(=O)(=O)c3c(C)noc3/C=C/c3ccco3)CC2)cc1 -8.9%, CCN(C(=O)CN(C)S(=O)(=O)c1ccc2c(c1)n(C)c(=O)c(=O)n2C)c1cccc(C)c1 0.794%, Cc1cccc(-c2noc(-c3ccc(N4CCCC4)c([N+](=O)[O-])c3)n2)c1 -11.5%, COc1cccc(NC(=O)Cn2c(=O)n(-c3cccc(OC)c3)c(=O)c3c4c(sc32)CCCC4)c1 -10.1%, COc1ccc(NS(=O)(=O)c2ccc3[nH]c4c(c3c2)CCCC4)c(OC)c1 -15.4%, O=C(CSCc1ccc(F)cc1)N1CCN(c2ccccc2)CC1 -17%, Cc1cc(C)c(Cn2c(=O)n(CCCCCC(=O)NCc3ccc4c(c3)OCO4)c(=O)c3sccc32)c(C)c1 -11.4%, CN(C)c1ccc(C(CNS(=O)(=O)c2cc(F)ccc2F)N2CCOCC2)cc1 (stereo unspecified) -20.5%, CC1CCC(NC(=O)c2ccc3c(c2)N(Cc2cccc(Cl)c2)C(=O)c2ccccc2S3=O)CC1 (stereo unspecified) 1.56%, O=C(NCc1ccc(Cl)cc1)C(=O)Nc1cccc(Br)c1 -2.51%, O=C(Nc1ccc2oc(-c3ccc4ccccc4c3)nc2c1)c1cc(Br)ccc1Cl -14.2%, Cc1ccc(CN(C(=O)c2ccccc2Br)C2CCS(=O)(=O)C2)o1 (stereo unspecified) -9.56%, Cc1ccc(NC(=O)Nc2cc3c(cc2N2CCCCC2)n(C)c(=O)n3C)cc1Cl -10.7%, CCOc1ccccc1NC(=O)COc1cccc2c(=O)n(CCOC)ccc12 -12.7%, Cn1c(=O)c2c(SCC(=O)NCc3ccco3)nc(-c3ccccc3F)nc2n(C)c1=O -8.14%, Cc1cc(N2CCN(C)CC2)nc2ccc(NC(=O)Nc3ccccc3)cc12 -10.3%, COc1cccc(-n2c(=O)c3c4c(sc3n(Cc3ccc(F)cc3Cl)c2=O)CCCC4)c1 -15.8%, O=C(CCCc1nc(-c2ccco2)no1)Nc1ccccc1[N+](=O)[O-] -41.3%, CC(=O)Nc1c(C(=O)Nc2cccc(C)c2)nnn1-c1ccc(C)cc1 -5.4%, CCOC(=O)c1ccc(NC(=O)c2c(C)oc3nc(C)nc(N4CCCC4)c23)cc1 -8.4%, CCC1CCCCN1S(=O)(=O)c1ccc(N2CCCCS2(=O)=O)cc1 (stereo unspecified) -20.9%, COc1ccc(C2=NN(C(C)=O)C(c3cn(-c4ccccc4)nc3-c3cccs3)C2)cc1 (stereo unspecified) 1.75%, COc1ccc(-c2[nH]ncc2C(=O)NCc2cccc(F)c2)cc1 -8.61%, Cc1ccc(Cl)cc1N1CCN(C(=O)CCSCc2ccccc2F)CC1 -12.3%, COc1ccc(NC(=O)c2oc3ccc(S(=O)(=O)N(C)C4CCCCC4)cc3c2C)cc1Cl -4.3%, Cc1c(C(=O)Nc2ccc(Br)cc2F)oc2ccc(S(=O)(=O)N3CCC4(CC3)OCCO4)cc12 0.739%, CCc1ccc(-c2cc(C)no2)cc1S(=O)(=O)N1CCN(c2cccc(Cl)c2)CC1 -8.84%, Cc1ccc(-n2nc(-c3ccc(F)cc3)c3cnc4cc5c(cc4c32)OCO5)cc1C -0.705%, CCc1ccc(NC(=O)CC(c2ccc(C)cc2)N2Cc3ccccc3C2=O)cc1 (stereo unspecified) -7.74%, COCCNC(=O)c1ccc2nc(CCc3ccccc3)oc2c1 -19.8%, CCCN1CCN(c2ncnc3sc(C(=O)Nc4ccc(N(CC)CC)cc4C)c(C)c23)CC1 2.43%, O=C(CSCc1cnn(-c2ccccc2)c1-n1cccc1)NCc1ccccc1F -28.6%, COc1cccc(CNS(=O)(=O)c2cc(Br)cc3c2N(C(C)=O)C(C)C3)c1 (stereo unspecified) -7.26%, CCCCOc1ccc(S(=O)(=O)n2nc(C)c(S(=O)(=O)N3CCC(C)CC3)c2C)cc1 -12.4%, CCCCN1CCCC1C(=O)Nc1c(C)cc(C)cc1C (stereo unspecified) 1.55%, Cc1ccn2c(Nc3ccc4c(c3)OCO4)c(-c3ccc(O)cc3)nc2c1 -12.6%, CCCOC(=O)C(C)n1nnc2sc(-c3ccccc3)cc2c1=O (stereo unspecified) -18.8%, Cc1ccc(-n2nc(C(=O)N3CCN(c4ccccc4)CC3)c(=O)n(C)c2=O)cc1 -11.8%, C[C@]12CC[C@@H]3c4ccc(O)cc4CC[C@H]3[C@@H]1C[C@@H](O)[C@@H]2O -13.9%, COC(=O)c1ccccc1NC(=O)c1nc(S(=O)(=O)Cc2ccccc2F)ncc1Cl -18.1%, CCc1ccccc1NC(=O)C1CCN(c2nn3c(=O)cc(C)nc3s2)CC1 -6.28%, CN(C)S(=O)(=O)Nc1ccc(-c2cn3ccsc3n2)cc1 -10.9%, COc1cccc(CC(=O)NCc2ccc3c(c2)CCN3C(C)=O)c1 -10.6%, Cc1ccc2oc(C(=O)Nc3ccc(S(=O)(=O)N(C)Cc4ccccc4)cc3)cc(=O)c2c1 -24.8%, CCc1ccc(-n2c(=O)c3c4c(sc3n(CC(=O)NCCCOC)c2=O)CCC4)cc1 0.142%, Cc1cccc(Cc2cnc(NC(=O)c3ccc4c(c3)CC(c3ccccc3)OC4=O)s2)c1 (stereo unspecified) -6.75%, CC(C)Oc1ccc(CNC(=O)c2ccc3nc(SCc4ccc(F)cc4)n(C)c3c2)cc1 -2.32%, Cc1ccccc1Cn1c(C)c(CNCc2ccccc2)c(C(=O)O)c1C -11.6%, CC(NC(=O)c1ccc2nc(CCc3ccccc3)oc2c1)c1ccccc1 (stereo unspecified) -7.17%, COc1ccc(NC(=O)CN(C)S(=O)(=O)c2ccc3[nH]c4c(c3c2)CCCC4)cc1OC -10.8%, COc1ccc(NC(=O)c2nc(SCc3ccccc3F)ncc2Cl)cc1 -16.8%, O=C(NCCc1ccc(Cl)cc1)c1ccc2c(c1)N(Cc1ccccc1)CCS2 -15.4%, O=C(Nc1ccc2oc(-c3cccnc3)nc2c1)c1ccc(-c2cccc(OC(F)(F)F)c2)o1 -26.8%, COc1cccc(N2CCN(C(=O)c3ccc(CS(=O)c4cccc(Cl)c4)o3)CC2)c1 (stereo unspecified) -12.9%, Cc1ccc(C)c(NC(=O)CCc2c(C)n(C)c3cc(-c4ccccc4C)nn3c2=O)c1 3.06%, Cc1ccc(NC(=O)CCS(=O)(=O)c2cccc3nonc23)c(C)c1 7.17%, CCCN1C(C(=O)c2ccccc2)=C(OC(=O)c2ccc(F)cc2)c2ccccc2S1(=O)=O -11.4%, Cc1ccc(C)c(Cn2c3ccccc3c3cnn(CC(=O)N4CCCCC4)c(=O)c32)c1 -15.4%, CCOc1ccc(NC(=O)Cn2c(CCC(=O)O)ccc2-c2ccc(Cl)cc2)cc1 -9.39%, COc1cc2c(C(=O)N3CCN(c4cccc(C)c4)C(C)C3)cn(CC(C)C)c(=O)c2cc1OC (stereo unspecified) 0.862%, Cc1cccc(-n2c(=O)c3ccccc3n(Cc3ccccc3C#N)c2=O)c1 -8.16%, Cc1nn(CCC(=O)NC(C)C)c(=O)c2nn(-c3ccccc3)c(C)c12 -4.55%, O=C(OCCN1CCOCC1)c1cccnc1Nc1cccc(C(F)(F)F)c1 -10.9%, COc1ccc(Cl)cc1NC(=O)c1cc(S(=O)(=O)N2CCc3ccccc32)cn1C -9.84%, COc1cccc(Cc2nc3ccccc3nc2SCC(=O)N2CCCCC2C)c1 (stereo unspecified) -17%, Cc1ccc2nc(NCc3ccccc3Cl)c3nnnn3c2c1 -5.93%, O=C(CSc1nc2c([nH]c3ccccc32)c(=O)n1-c1cccc(Cl)c1)N1CCc2ccccc21 -8.11%, CCc1nnc(NC(=O)c2nc(S(C)(=O)=O)ncc2Cl)s1 -4.76%, COc1cc2ccccc2cc1C(=O)Nc1ccc2oc(-c3cc(Br)ccc3Cl)nc2c1 -19.8%, CCOc1ccccc1NC(=O)c1sc2nc3c(cc2c1N)CN(Cc1ccccc1)CC3 -14.4%, COc1cc(NC(=O)CCc2c(C)n(C)c3cc(-c4ccccc4C)nn3c2=O)cc(OC)c1OC 0.689%, O=C(NCc1ccco1)c1ccc2c(c1)N(Cc1ccc(F)cc1)C(=O)c1ccccc1S2=O (stereo unspecified) -9.22%, O=C(CN1C(=O)CSc2ccc(S(=O)(=O)N3CCCCC3)cc21)NCc1ccc(F)cc1Cl -23.9%, CC(C)(C)c1ccc(C(=O)CCCCl)cc1 -10.6%, COc1cccc(C(=O)CN2CCN(S(=O)(=O)c3ccc(Cl)cc3)CC2)c1 -10.7%, Cc1cc(CCCOc2c(C)cc(-c3noc(C(F)(F)F)n3)cc2C)on1 -7.56%, Cc1ccc(-c2[nH]c(-c3ccccc3)nc2SCC(=O)NCC2CCCO2)cc1 (stereo unspecified) -12.5%, COc1ccc(NC(=O)CN(C)S(=O)(=O)c2cnc[nH]2)cc1Cl -9.96%, CCc1cccc(C)c1NC(=O)Cn1ccn(Cc2ccc(Cl)cc2)c(=O)c1=O -10.3%, COc1ccc(-c2noc(COc3ccc(Br)cc3C)n2)cc1OC -7.17%, OCCOCCN1CCN(C(c2ccccc2)c2ccc(Cl)cc2)CC1 (stereo unspecified) -15.1%, Cc1ccc(OCC(=O)Nc2cccc(C(=O)OCc3cc(=O)n4nc(C)sc4n3)c2)cc1 -15.8%, CCC(O)c1cc2c(cc1NC(=O)c1ccccc1F)OCCO2 (stereo unspecified) -9.92%, O=C(CC1N=C2c3ccccc3N=C(SCc3cccc(F)c3)N2C1=O)NCc1ccc2c(c1)OCO2 (stereo unspecified) -0.319%, O=C(O)c1ccc(NC(=O)c2cn(-c3ccccc3)nc2-c2ccc(Br)cc2)cc1 -13.6%, CCc1ccc(OCC(=O)Nc2ccc(-c3nc4ncccc4o3)cc2)cc1 -4%, Cc1ccc2c(c1C)NC(=O)CC2c1ccc(Cl)cc1Cl (stereo unspecified) -12.6%, Cc1ccc(-c2cc(C(=O)Oc3ccccc3Cl)no2)cc1C 14.2%, Cc1ccc(N2CCN(C(=O)c3cc(S(=O)(=O)N4CCCCC4)c[nH]3)CC2)c(C)c1 -15%, Cc1ccc2nc(Cl)c3cc(C(=O)NC4CCC(C)CC4)sc3c2c1 (stereo unspecified) -17.9%, COC(=O)c1cnc(N2CCN(c3ccc(F)cc3)CC2)c2ccccc12 -15.4%

Reference: PubChem BioAssay AID1159614 (National Center for Advancing Translational Sciences (NCATS), 2016)
